Measured values reported in article PMC4336329 (PLoS ONE, 2015).
Screen size: about 310,000 compounds; about 2,200 (0.71%) showed an effect of 50% or more. The effect is printed as a negative number. The list shows a part of the results.

Target: human ether-à-go-go-related gene (hERG) potassium channel (human, UniProt Q12809)
Test: primary screen, population patch clamp on CHO cells stably expressing hERG

Sequence of human ether-à-go-go-related gene (hERG) potassium channel (Q12809 whole entry, looked up): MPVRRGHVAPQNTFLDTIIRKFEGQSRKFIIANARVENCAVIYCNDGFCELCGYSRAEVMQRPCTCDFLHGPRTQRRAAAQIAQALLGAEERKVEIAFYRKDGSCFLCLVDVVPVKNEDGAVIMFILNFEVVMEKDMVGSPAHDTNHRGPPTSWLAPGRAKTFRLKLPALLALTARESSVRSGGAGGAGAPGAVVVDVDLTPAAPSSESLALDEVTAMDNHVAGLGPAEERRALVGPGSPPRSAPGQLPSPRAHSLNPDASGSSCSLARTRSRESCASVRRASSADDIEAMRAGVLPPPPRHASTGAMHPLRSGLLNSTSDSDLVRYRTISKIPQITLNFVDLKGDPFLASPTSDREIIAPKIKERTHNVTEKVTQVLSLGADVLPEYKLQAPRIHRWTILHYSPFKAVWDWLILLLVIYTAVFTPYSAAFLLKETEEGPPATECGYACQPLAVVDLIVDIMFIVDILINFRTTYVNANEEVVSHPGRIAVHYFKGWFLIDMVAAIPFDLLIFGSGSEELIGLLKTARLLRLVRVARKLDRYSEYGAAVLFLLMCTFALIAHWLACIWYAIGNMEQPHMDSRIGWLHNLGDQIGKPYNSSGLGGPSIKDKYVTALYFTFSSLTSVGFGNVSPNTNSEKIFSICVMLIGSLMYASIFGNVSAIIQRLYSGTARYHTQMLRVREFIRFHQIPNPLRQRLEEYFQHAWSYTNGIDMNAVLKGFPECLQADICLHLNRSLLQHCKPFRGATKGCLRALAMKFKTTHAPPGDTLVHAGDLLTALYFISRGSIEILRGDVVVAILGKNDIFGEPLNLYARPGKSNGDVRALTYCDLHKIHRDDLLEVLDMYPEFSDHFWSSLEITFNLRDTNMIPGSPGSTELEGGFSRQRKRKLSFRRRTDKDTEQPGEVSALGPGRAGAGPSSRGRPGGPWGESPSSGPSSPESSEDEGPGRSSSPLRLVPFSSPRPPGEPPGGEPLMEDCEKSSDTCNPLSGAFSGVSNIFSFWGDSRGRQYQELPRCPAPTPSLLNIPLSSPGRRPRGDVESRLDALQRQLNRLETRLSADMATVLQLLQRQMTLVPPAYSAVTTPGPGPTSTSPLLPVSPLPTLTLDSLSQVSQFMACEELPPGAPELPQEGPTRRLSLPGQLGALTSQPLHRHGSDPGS

| SMILES | hERG current change (%, negative = inhibition) at 1uM [%] |
| --- | --- |
| CC/C(=N\OC(=O)c1ccc(OC(C)C)cc1)c1ccc(C)cc1 | 17.1 |
| CCOc1ccc(Oc2ccc(NS(=O)(=O)c3cc(C(=O)O)ccc3Cl)cc2)cc1 | 15.8 |
| Cc1cc(Cl)ccc1Oc1ncnc2oc(-c3ccccc3)cc12 | 6.84 |
| O=C1CN(C(=O)N[C@@H](Cc2ccccc2)C(=O)N[C@H](Cc2ccccc2)C(=O)O)c2ccccc2N1 | 14.5 |
| O=C1C(NS(=O)(=O)c2cccs2)=C(N2CCN(c3cccc(Cl)c3)CC2)C(=O)c2ccccc21 | 0.888 |
| COc1cc(C(=O)OCc2ccc([N+](=O)[O-])cc2)cc(OC)c1OC | -2.94 |
| Cn1cccc1C(=O)NNC(=O)COc1ccccc1F | 14.8 |
| Br.C#CCOC(=O)C1=CCCN(C)C1 | 12.9 |
| CCN1CCN(Cc2ccc(NC(=O)c3ccc(C)c(NC(=O)c4nccnc4N)c3)cc2C(F)(F)F)CC1 | 8.27 |
| COc1ccc(-n2c(Cc3ccccc3)nnc2SCc2ccc([N+](=O)[O-])cc2)cc1 | 0.853 |
| CCN(CC)CCNC(=O)CNC(=O)c1nn(-c2ccc(OC)cc2OC)c(=O)c2ccccc12 | 4.34 |
| COc1ccc(CN(C(=O)c2ccc(-c3ccccc3)[nH]2)C(C(=O)NC(C)(C)C)c2ccncc2)cc1 (stereo not shown) | 10.1 |
| CCn1cc(CN2CCCC(CO)(Cc3ccc(F)cc3)C2)c2ccccc21 (stereo not shown) | 7.49 |
| CC(=O)Nc1ccc(N=Cc2c(O)n(Cc3ccco3)c(=O)[nH]c2=O)cc1 | 6.09 |
| COC(=O)c1ccc(C(=O)OC)c(NC(=S)N2CCCC2)c1 | 1.2 |
| Cc1ccccc1OCC(=O)Nc1ccccc1N1CCC(C)CC1 | 18.9 |
| COCC(=O)Nc1ccccc1Br | 12.3 |
| COc1cc(C2C(C#N)=C(N)Oc3n[nH]c(C)c32)ccc1OC(=O)c1ccccc1 (stereo not shown) | 6.72 |
| O=C(O)c1cccc2c1C(=O)c1ccc(-c3ccc(F)cc3OCc3ccccc3)cc1S2(=O)=O | 1.74 |
| COc1ccc(-c2ccc(SCC(=O)Nc3cc(C)on3)nn2)cc1OC | 7 |
| COc1ccc(C)cc1NC(=O)n1ncc2cc(Cl)ccc21 | 16.4 |
| CC1CCCCC1NC(=O)C1CCCN(S(=O)(=O)c2ccc(-n3cnnn3)cc2)C1 (stereo not shown) | -13.3 |
| COC(=O)CCC(=O)OC1(C)C(=O)C=C2C=C(C3CC3)N(C3CC3)C=C2C1=O (stereo not shown) | 14.2 |
| CCSc1nnc(NC(=O)c2cc(C)on2)s1 | 9.65 |
| Nc1cc(C(F)(F)F)ccc1NCCc1ccccn1 | 13.7 |
| COc1cccc(CNC(=O)Cn2cc([N+](=O)[O-])cn2)c1 | 13.2 |
| CC1CN(S(=O)(=O)N(C)C)CCN1S(=O)(=O)N(C)C (stereo not shown) | -6.7 |
| COc1cc(OC)c(OC)cc1CNC(=O)c1cc(=O)c2ccccc2o1 | 13.4 |

| SMILES | hERG current change (%, negative = inhibition) at 1uM [%] |
| --- | --- |
| CCn1cc(CN2CCC(n3nccc3NC(=O)C3CCCC3)CC2)c(C)n1 | 6.12 |
| CCCCNC(=O)Cn1c(-c2ccc(OC)cc2)noc1=O | -0.784 |
| c1cncc(C2CCCN2)c1 (stereo not shown) | 9.38 |
| O=C(/C(=N/N=C/c1ccc(O)c(O)c1O)c1ccccc1)c1ccccc1 | 6.46 |
| Cc1c(C(=O)NCCn2ccc3ccccc32)cccc1[N+](=O)[O-] | 1.53 |
| Cc1ccc(NC(=O)COC(=O)CN2C(=O)NC3(CCCC3)C2=O)cc1Cl | 2.8 |
| CCn1c2ccccc2c2cc(/C(C)=N/O)ccc21 | 1.21 |
| O=C(CNC(=O)c1ccc(F)cc1)NCc1ccc(Cl)cc1 | 12.9 |
| O=C(NC1CCN(c2ncccn2)CC1)c1c(F)cccc1F | 14.5 |
| COc1ccc(CN(CCC(c2ccccc2)c2ccc(OC(C)C)cc2)C(=O)CCl)cc1OC (stereo not shown) | 5.42 |
| COc1ccc(NS(=O)(=O)c2ccc3oc(=O)ccc3c2)cc1 | 14.9 |
| CCN(CC)S(=O)(=O)c1ccc(NC(=O)C(OC)c2ccccc2)cc1 (stereo not shown) | 6.83 |
| CCN(CC(=O)Nc1ccc(NC(C)=O)cc1)C(=O)COc1ccccc1-c1ccccc1 | 12 |
| COc1ccc(S(=O)(=O)N2CCCC2C(=O)Nc2nccs2)cc1 (stereo not shown) | 8.59 |
| Cc1ccc(C)c(NC(=O)CSc2nnc([C@@H](N)Cc3ccccc3)o2)c1.Cl | 7.54 |
| Cc1ccc(NCC(=O)N/N=C/c2ccncc2)cc1 | 17.1 |
| COc1ccc([C@@H]2Sc3cc(OC)ccc3N(CCN(C(C)C)C(C)C)C(=O)[C@H]2OC(C)=O)cc1.Cl | -70 |
| Brc1ccccc1OCCCOc1cccc2cccnc12 | 8.66 |
| Cc1cnccc1CNC(=O)CC1C(=O)NCCN1CC(C)(C)C (stereo not shown) | 2.85 |
| Cc1ccc(C(=O)Oc2coc(CSc3nnc(NC(=O)c4cccs4)s3)cc2=O)cc1 | 13.4 |
| COc1cccc(NC(=O)N2CCC(C(=O)Nc3ccc(C)cc3C)CC2)c1 | 2.97 |
| CCOC(=O)c1c(NC(=S)NC(=O)c2ccc(Cn3cc(Cl)cn3)o2)sc2c1CCC(C)C2 (stereo not shown) | 31.9 |
| O=C(C(=O)N1CCCCCC1)c1c[nH]c2ccccc12 | 11.5 |
| CCOc1cccc(N2C(=O)CC(N3CCN(c4nc5ccccc5s4)CC3)C2=O)c1 (stereo not shown) | 13.8 |
| O=C1CCCN1CCC1CCN(C2CC(=O)N(Cc3ccc(N4CCCC4=O)cc3)C2=O)CC1 (stereo not shown) | 16.5 |
| CCOc1ccc(NCCC(O)c2ccc(F)cc2)cc1 (stereo not shown) | 17 |
| CCOc1cccc(=[NH+]C2CCCCC2)c2c(C)[nH]c(C)c12.[O-][Cl+3]([O-])([O-])[O-] | -33.4 |
